Test results: the supplement of paper PMC4604168 (melanoma cell lines)
This is one part of the list. Many values rest on one well or one pass, so single values are uncertain.

Each molecule was assayed on C32 (assay: cell count relative to DMSO control; melanoma cells; higher = more viable cells). Conditions: library dose: low library concentration; 72 h.
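Also: cell number obtained by counting DAPI-stained nuclei in high-throughput microscope images with image analysis software, screen run in 1,536-well plates.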

Compound | cell count [%]
O=C(/C=C/c1cccnc1)NCCCCC1CCN(C(=O)c2ccccc2)CC1 + CC(C)(C)c1cnc(CSc2cnc(NC(=O)C3CCNCC3)s2)o1 [SNS-032] (first compound 0.01 µM, partner dose 0.01 µM) | 105
Cc1ccc(Nc2nccc(N(C)c3ccc4c(C)n(C)nc4c3)n2)cc1S(N)(=O)=O [Pazopanib] + Cn1cncc1[C@@](N)(c1ccc(Cl)cc1)c1ccc2c(c1)c(-c1cccc(Cl)c1)cc(=O)n2C [tipifarnib] (first compound 0.4 µM, partner dose 0.01 µM) | 101
O=C(/C=C/c1cccnc1)NCCCCC1CCN(C(=O)c2ccccc2)CC1 + C[C@@H]1CCN(C(=O)CC#N)C[C@@H]1N(C)c1ncnc2[nH]ccc12 [CP690550] (first compound 0.01 µM, partner dose 1 µM) | 104
Cc1ccc(Nc2nccc(N(C)c3ccc4c(C)n(C)nc4c3)n2)cc1S(N)(=O)=O [Pazopanib] + COCC[n+]1c2c(n(Cc3cnccn3)c1C)C(=O)c1ccccc1C2=O [YM155] (first compound 0.4 µM, partner dose 0.0004 µM) | 112
Cc1ccc(Nc2nccc(N(C)c3ccc4c(C)n(C)nc4c3)n2)cc1S(N)(=O)=O [Pazopanib] + CN(NC(=O)CC(=O)NN(C)C(=S)c1ccccc1)C(=S)c1ccccc1 [STA4783] (first compound 0.4 µM, partner dose 0.006 µM) | 76.7
CC1(C)CCC(c2ccc(Cl)cc2)=C(CN2CCN(c3ccc(C(=O)NS(=O)(=O)c4ccc(N[C@H](CCN5CCOCC5)CSc5ccccc5)c(S(=O)(=O)C(F)(F)F)c4)cc3)CC2)C1 + C=C(c1ccc(C(=O)O)cc1)c1cc2c(cc1C)C(C)(C)CCC2(C)C [Bexarotene] (first compound 0.4 µM, partner dose 2 µM) | 57.8
Cc1ccc(Nc2nccc(N(C)c3ccc4c(C)n(C)nc4c3)n2)cc1S(N)(=O)=O [Pazopanib] + Nc1ccn([C@@H]2O[C@H](CO)[C@@H](O)C2(F)F)c(=O)n1 [gemcitabine] (first compound 0.4 µM, partner dose 0.0004 µM) | 117
Cc1ccc(Nc2nccc(N(C)c3ccc4c(C)n(C)nc4c3)n2)cc1S(N)(=O)=O [Pazopanib] + Clc1ccc(Nc2nnc(Cc3ccncc3)c3ccccc23)cc1 [vatalanib] (first compound 0.4 µM, partner dose 2 µM) | 85
O=C(/C=C/c1cccnc1)NCCCCC1CCN(C(=O)c2ccccc2)CC1 + CC(C)C[C@H](NC(=O)[C@H](Cc1ccccc1)NC(=O)c1cnccn1)B(O)O [Bortezomib] (first compound 0.01 µM, partner dose 0.001 µM) | 89.6
CC1(C)CCC(c2ccc(Cl)cc2)=C(CN2CCN(c3ccc(C(=O)NS(=O)(=O)c4ccc(N[C@H](CCN5CCOCC5)CSc5ccccc5)c(S(=O)(=O)C(F)(F)F)c4)cc3)CC2)C1 + O=C(O)c1ccc2c(c1)nc(Nc1cccc(Cl)c1)c1ccncc12 [CX4945] (first compound 0.4 µM, partner dose 0.4 µM) | 40.3
O=C(/C=C/c1cccnc1)NCCCCC1CCN(C(=O)c2ccccc2)CC1 + Cn1c(Nc2ccc(C(F)(F)F)cc2)nc2cc(Oc3ccnc(-c4ncc(C(F)(F)F)[nH]4)c3)ccc21 [CHIR265] (first compound 0.01 µM, partner dose 0.08 µM) | 71.4
CC1(C)CCC(c2ccc(Cl)cc2)=C(CN2CCN(c3ccc(C(=O)NS(=O)(=O)c4ccc(N[C@H](CCN5CCOCC5)CSc5ccccc5)c(S(=O)(=O)C(F)(F)F)c4)cc3)CC2)C1 + CO[C@@H]1[C@H](N(C)C(=O)c2ccccc2)C[C@H]2O[C@]1(C)n1c3ccccc3c3c4c(c5c6ccccc6n2c5c31)C(=O)NC4 [Midostaurin] (first compound 0.4 µM, partner dose 0.08 µM) | 58.9
O=C(/C=C/c1cccnc1)NCCCCC1CCN(C(=O)c2ccccc2)CC1 + C=C(c1ccc(C(=O)O)cc1)c1cc2c(cc1C)C(C)(C)CCC2(C)C [Bexarotene] (first compound 0.01 µM, partner dose 2 µM) | 112
